Measured values as given in the antibiotic and cytotoxicity screens of Wong et al. (2023).
The list shows a part of the results.

Experiments:
HSkMC = human skeletal muscle cells; experiment: cytotoxicity call (relative viability < 0.9); conditions: 10 µM
HepG2 = experiment: cytotoxicity call (relative viability < 0.9); conditions: 10 µM
S. aureus RN4220 = experiment: growth inhibition call (relative growth <= 0.2); conditions: 50 µM

| SMILES | cytotoxicity call (HSkMC) | cytotoxicity call (HepG2) | growth inhibition call (S. aureus RN4220) |
| --- | --- | --- | --- |
| CC(C)NC(=O)N(C)C[C@H]1Oc2c(NC(=O)C3CCCCC3)cccc2C(=O)N([C@H](C)CO)C[C@@H]1C | inactive | inactive | inactive |
| C[C@@H]1CN([C@@H](C)CO)C(=O)c2cc(C#Cc3ccncc3)cnc2O[C@@H]1CN(C)C(=O)c1ccccc1F | inactive | inactive | inactive |
| CC(C)NC(=O)N(C)C[C@H]1Oc2cc(C#Cc3ccc(F)cc3)ccc2S(=O)(=O)N([C@@H](C)CO)C[C@@H]1C | inactive | inactive | inactive |
| COCC#Cc1ccc2c(c1)O[C@H](CN(C)S(=O)(=O)c1cccc(F)c1)[C@H](C)CN([C@H](C)CO)S2(=O)=O | inactive | inactive | inactive |
| CN1CCN(C(=O)C[C@H]2C=C[C@@H](NC(=O)Nc3ccccc3F)[C@H](CO)O2)CC1 | inactive | inactive | inactive |
| COc1ccc(NC(=O)Nc2ccc3c(c2)CC(=O)N([C@H](C)CO)C[C@@H](C)[C@@H](CN(C)CC2CCCCC2)O3)cc1 | inactive | active | inactive |
| Cc1noc(C)c1NC(=O)Nc1ccc2c(c1)C(=O)N([C@H](C)CO)C[C@@H](C)[C@H](CN(C)CC1CC1)OCCCC[C@@H](C)O2 | inactive | inactive | inactive |
| Cc1ncc(CO)c(CO)c1O.Cl | inactive | inactive | inactive |
| C[C@@H]1CN([C@@H](C)CO)C(=O)c2cc(NC(=O)Nc3ccccc3)ccc2O[C@@H](C)CCCCO[C@H]1CN(C)Cc1ccc2c(c1)OCO2 | inactive | inactive | inactive |
| COc1ccc(S(=O)(=O)Nc2cccc3c2O[C@H](CN(C)Cc2ccncc2)[C@H](C)CN([C@@H](C)CO)C3=O)cc1 | inactive | inactive | inactive |
| CCCc1nc2c(=O)n(C)c(=O)[nH]c2n1C | inactive | inactive | inactive |
| C[C@@H]1CN([C@H](C)CO)C(=O)CCCn2cc(nn2)CO[C@@H]1CN(C)C(=O)c1cc(-c2ccccc2)on1 | inactive | inactive | inactive |
| COc1ccc2occ(C(C)=O)c2c1 | inactive | inactive | inactive |
| C=Cn1cnc2c1c(=O)n(C)c(=O)n2C | inactive | inactive | inactive |
| C[C@H](CO)N1C[C@H](C)[C@@H](CN(C)C(=O)Nc2ccccc2)Oc2ccc(NS(=O)(=O)c3cn(C)cn3)cc2C1=O | inactive | inactive | inactive |
| C[C@@H]1CN([C@@H](C)CO)C(=O)c2cc(NC(=O)c3ccncc3)ccc2O[C@H]1CN(C)S(=O)(=O)c1cn(C)cn1 | inactive | inactive | inactive |
| C[C@H]1CN([C@@H](C)CO)C(=O)CCCn2nncc2CO[C@@H]1CN(C)S(=O)(=O)c1ccc(Oc2ccccc2)nc1 | inactive | inactive | inactive |
| COc1ccc(CN(C)C[C@H]2Oc3c(NC(=O)Nc4ccc(C(F)(F)F)cc4)cccc3C(=O)N([C@H](C)CO)C[C@H]2C)cc1 | inactive | inactive | inactive |
| C[C@H](CO)N1C[C@H](C)[C@@H](CN(C)Cc2ccc(C(=O)O)cc2)Oc2c(NS(=O)(=O)c3cn(C)cn3)cccc2C1=O | inactive | inactive | inactive |
| COc1ccc(S(=O)(=O)N(C)C[C@@H]2Oc3ccc(NC(=O)CCN4CCOCC4)cc3C(=O)N([C@H](C)CO)C[C@@H]2C)cc1 | inactive | inactive | inactive |
| CCC[C@@H](O)C#Cc1cnc2c(c1)C(=O)N([C@H](C)CO)C[C@H](C)[C@H](CN(C)S(=O)(=O)c1cccc(F)c1)O2 | inactive | inactive | inactive |
| C[C@H](CO)N1C[C@H](C)[C@H](CN(C)S(=O)(=O)c2ccc(Cl)cc2)Oc2ccc(NC(=O)CCCN(C)C)cc2CC1=O | inactive | inactive | inactive |
| C[C@H](CO)N1C[C@H](C)[C@@H](CN(C)S(=O)(=O)c2ccc(C(F)(F)F)cc2)OCc2ccccc2-c2ccccc2C1=O | inactive | inactive | inactive |
| COc1ccc(S(=O)(=O)Nc2ccc3c(c2)C(=O)N([C@@H](C)CO)C[C@@H](C)[C@@H](CN(C)S(=O)(=O)c2cn(C)cn2)O3)cc1 | inactive | inactive | inactive |
| Cc1ccc(S(=O)(=O)Nc2cccc3c2O[C@@H](CN(C)C(=O)NC(C)C)[C@@H](C)CN([C@H](C)CO)C3=O)cc1 | inactive | inactive | inactive |
| C[C@@H]1CN([C@H](C)CO)C(=O)Cc2cc(NS(=O)(=O)c3ccccc3)ccc2O[C@H]1CN(C)Cc1ccncc1 | inactive | inactive | inactive |
